Assay results published in PubChem BioAssay AID2451 (National Center for Advancing Translational Sciences (NCATS), 2010).
Screen size: about 290,000 compounds; about 2,100 (0.72%) were called active. The inconclusive results got no clear call from the source; some entries with a clear call stand among them for comparison. The call rests on the fitted dose curve; in most records, active means well fitted inhibition curve with a large enough effect; inconclusive means small, poorly fitted or top-dose-only effect, or effect the other way; inactive means flat fitted curve, though single readings scatter. Where the call is inconclusive, the potency comes from a doubtful curve fit.

molecular target: Fructose-bisphosphate aldolase (Giardia intestinalis (strain ATCC 50803 / WB clone C6)) (UniProt A8B2U2); assay: qHTS Assay for Inhibitors of Fructose-1,6-bisphosphate Aldolase from Giardia Lamblia; details: purified Giardia FBPA; activity, negative = inhibition: at 59.6 µM (top of the series) unless noted; further: nearly all actives have a fitted effect of over 55% in size
Outline: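 40 nM FBPA preincubated 10 min at RT with compound (up to 57.5 uM final), then substrate plus GAPDH/TPI/NAD/arsenate coupling and diaphorase/resazurin added. Fluorescence read after 20 min at RT, 525/598 nm.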
On the % scale 0 is the no-effect control and ±100 the full control effect; potency means the concentration at half of the fitted maximal effect; tags describe the fitted curve by direction and shape.

Sequence of UniProt A8B2U2 (A8B2U2 whole entry, looked up): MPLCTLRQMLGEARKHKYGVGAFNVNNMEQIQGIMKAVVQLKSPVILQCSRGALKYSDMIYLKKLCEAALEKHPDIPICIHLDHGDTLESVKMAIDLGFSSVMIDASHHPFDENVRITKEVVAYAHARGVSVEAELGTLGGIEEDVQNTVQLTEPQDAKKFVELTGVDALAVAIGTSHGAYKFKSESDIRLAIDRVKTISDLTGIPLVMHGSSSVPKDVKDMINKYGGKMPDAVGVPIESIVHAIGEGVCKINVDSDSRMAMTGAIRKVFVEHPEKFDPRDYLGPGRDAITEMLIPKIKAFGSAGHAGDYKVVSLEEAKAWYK

Row | Structure (SMILES) | Potency | activity, negative = inhibition
1 | O=C(/C=C/c1ccccc1)Nc1scc(-c2ccccc2)c1C(=O)O | inconclusive: 17.7 µM [inhibitor, single point] | 
2 | O=[N+]([O-])c1c(NCCCO)cc(SCc2ccco2)c2nonc12 | inconclusive: 1.26 µM [inhibitor, full curve] | 
3 | CCNc1ncc2nc(-c3ccccc3)c(=O)n(-c3ccc(OC)cc3)c2n1 | inconclusive: 19.9 µM [inhibitor, single point] | 
4 | CC(C)c1nc(C#N)c(NN)o1 | inconclusive: 17.7 µM [inhibitor, single point] | 
5 | CCOc1ccc(NC(=O)Nc2cccnc2)cc1 | inactive | 
6 | Cc1cc2c(c(=O)n1-c1ccccc1)C1O[C@](c3ccsc3)(Cc3cc(C#N)ccc31)O2 |  | inactive: -19.1% [at 12.9 µM]
7 | COc1ccc(-c2nc(NC(=O)c3[nH]c(C)c(C(C)=O)c3C)sc2C)cc1 | inactive | 
8 | N#CC(c1nc2ccccc2nc1N1CCCC1)S(=O)(=O)c1cccs1 (stereo not given) | inconclusive: 7.06 µM [inhibitor, partial curve] | 
9 | O=[N+]([O-])c1ccc(CNC2CCCc3ccccc32)cc1 (stereo not given) | inconclusive: 11.2 µM [inhibitor, partial curve] | 
10 | CCOc1ccc(C2C(C(=O)c3ccco3)=C(O)C(=O)N2CCN2CCOCC2)cc1 (stereo not given) | inconclusive: 0.398 µM [inhibitor, full curve] | 
11 | COc1cccc(CN2CCN(Cc3ccco3)CC2)c1 | inconclusive: 22.4 µM [inhibitor, partial curve] | 
12 | COc1cc(NCCCCCCCN)c2ncccc2c1 | inconclusive: 0.5 µM [inhibitor, full curve] | 
13 | O=C(c1cccs1)c1no[n+]([O-])c1C(=O)c1cccs1 | active: 3.97 µM | 
14 | OC(CNCC(c1ccco1)N1CCCCC1)c1ccccc1 (stereo not given) | inconclusive: 19.9 µM [inhibitor, partial curve] | 
15 | CCOc1ccc(NC(=O)CSc2ncc(-c3ccc(F)cc3)n2Cc2ccco2)cc1 | inactive | 
16 | O=c1c(-c2ccc(Cl)cc2)nc2cnc(N3CCNCC3)nc2n1-c1ccccc1 | inactive | 
17 | COc1ccc(C(=O)N2CCN(Cc3ccccc3[N+](=O)[O-])CC2)cc1 | inconclusive: 28.2 µM [inhibitor, partial curve] | 
18 | CCCC[n+]1c(C)sc2ccc(C)cc21 | inactive | 
19 | O=C1c2ccccc2C(=O)C1(CO)c1ccccc1 | inactive | 
20 | CCCCCCOc1ccc(N2C(=O)CC(SCCN)C2=O)cc1 (stereo not given) | inconclusive: 28.2 µM [inhibitor, single point] | 
21 | Cc1ccc(N2C(=O)/C(=C/c3ccc(CN(CCC#N)S(C)(=O)=O)o3)C(=O)NC2=S)cc1 | inconclusive: 19.9 µM [inhibitor, single point] | 
22 | CCOC(=O)C=Nc1c(N)n(C)c(=O)n(C)c1=O | inconclusive: 17.7 µM [inhibitor, partial curve] | 
23 | CCOc1cc(CC(=O)N[C@@H](CC(C)C)c2ccccc2N2CCCCC2)ccc1C(=O)O | inconclusive: 17.7 µM [activator, single point] | 
24 | Cc1cc(C)c2nc(-c3ccccn3)cc(C(=O)Nc3ccc(S(=O)(=O)Nc4onc(C)c4C)cc3)c2c1 | inconclusive: 22.3 µM [inhibitor, single point] | 
25 | CCC(C)NC(=O)CSc1nc2ccc(N3CCOCC3)cc2c(=O)n1CCc1ccccc1 (stereo not given) | inconclusive: 5 µM [inhibitor, full curve, poor fit] | 

Row | Structure (SMILES) | Potency | activity, negative = inhibition
26 | CCn1c2ccccc2c2cc(NS(=O)(=O)c3ccc(C)cc3)ccc21 | inactive | 
27 | O=C(CSc1nc2ncc(Br)cc2[nH]1)Nc1ccccc1-c1ccccc1 | inconclusive: 20 µM [inhibitor, single point] | 
28 | O=c1cc(CO)oc(C(Nc2cccc(C(F)(F)F)c2)c2ccccn2)c1O (stereo not given) | inconclusive: 15.8 µM [inhibitor, partial curve] | 
29 | Cc1oc(C)c2c(=O)ccc3c(c12)OC(N)=C(C#N)C3c1ccccc1Cl (stereo not given) | active: 11.2 µM | 
30 | CC(=O)Nc1ccc2oc(-c3ccccc3)nc2c1 | inactive | 
31 | Cc1noc(C)c1C(=O)Nc1ccc2c(c1)CCC2 | inactive | 
32 | CC1CCN(CC(=O)Nc2ccc(S(=O)(=O)NC3CC3)cc2)CC1 | inconclusive: 15.8 µM [inhibitor, partial curve] | 
33 | COc1ccc(/C=N/c2c(-c3ccco3)nc3ccccn23)cc1OC | inconclusive: 19.9 µM [inhibitor, partial curve] | 
34 | COc1ccc(NC(C)=O)cc1NC(C)c1nc2sc(C)c(C)c2c(=O)[nH]1 (stereo not given) | active: 8.89 µM | 
35 | CC(C)(C)c1ccc(S(=O)(=O)NCC(=O)N2CCN(Cc3ccccc3)CC2)cc1 | inactive | 
36 | COCCN=c1scc(-c2ccco2)n1/N=C/c1ccc(O)c(O)c1O | active: 17.7 µM | 
37 | OC(C#CCN1CCCCCC1)(c1ccccc1)c1cccnc1 (stereo not given) | inconclusive: 15.8 µM [inhibitor, single point] | 
38 | CSc1ccc(CN2CCN(C(=O)COc3ccc(C)cc3)CC2)cc1 | inconclusive: 17.7 µM [inhibitor, partial curve] | 
39 | COc1cc(CNCc2ccc(C)cc2)cc(OC)c1OC | inconclusive: 35.5 µM [inhibitor, partial curve] | 
40 | COc1cc(C(=O)Nc2ccccn2)cc(OC)c1OC | inactive | 
41 | C/C(CC(=O)N1CCCC1)=N\NC(=O)c1cc2ccccc2cc1O | active: 12.6 µM | 
42 | O=C(CSc1n[nH]c(-c2cccs2)n1)NC1CCS(=O)(=O)C1 (stereo not given) | inconclusive: 25.1 µM [inhibitor, partial curve] | 
43 | CCCCOc1ccc(NC(=O)Nc2nnc(C)s2)cc1 | inactive | 
44 | Cc1nc(N=Nc2cc([N+](=O)[O-])ccc2Cl)c(COP(=O)(O)O)c(C=O)c1O | active: 22.3 µM | 
45 | C=CCSC1=C(C#N)C(c2ccccc2Cl)C(C(=O)c2cccs2)C(O)(C(F)(F)F)N1 (stereo not given) | inconclusive: 14.1 µM [inhibitor, partial curve] | 
46 | c1cc2c(cc1CN1CCN(C3CCCCCC3)CC1)OCO2 | inconclusive: 22.4 µM [inhibitor, partial curve] | 
47 | Cn1ccnc1COc1ccc(C=O)cc1 | inconclusive: 22.4 µM [inhibitor, partial curve] | 
48 | O=C1NC(=S)CN1c1ccccc1 | inconclusive: 15.8 µM [inhibitor, partial curve] | 
49 | c1cc2[nH]snc2c2nc(C3CC3)nc12 | inconclusive: 14.1 µM [inhibitor, partial curve] | 
50 | Cn1cnc(Sc2ncnc3nc[nH]c23)c1[N+](=O)[O-] | active: 14.1 µM | 

Row | Structure (SMILES) | Potency | activity, negative = inhibition
51 | CCOC(=O)C(Nc1ccc2ccccc2c1)C(=O)OCC | active: 3.54 µM | 
52 | CCCCN(CCCC)CC(O)COc1ccccc1Br (stereo not given) | inactive | 
53 | COCCN(C(=S)Nc1ccccc1OC)C1CCN(C(C)C)CC1 | active: 15.8 µM | 
54 | CN(Cc1ccccc1)C(=O)COc1ccc(C(C)(C)C)cc1 | inactive | 
55 | COc1ccc(OC)c2c(C)cc(N3CCN(C(=O)c4ccc(F)cc4)CC3)nc12 | inconclusive: 15.8 µM [inhibitor, single point] | 
56 | CCN1CCN(c2c(/C=C3\SC(=S)N(Cc4ccco4)C3=O)c(C)c(C#N)c(=O)n2C)CC1 | inconclusive: 14.1 µM [inhibitor, partial curve] | 
57 | CCc1oc(C(=O)OC)cc1CSC(=N)N | active: 17.7 µM | 
58 | O=C1C(N2CCOCC2)=C(n2nnc3ccccc32)C(=O)c2ccccc21 | inconclusive: 0.251 µM [inhibitor, full curve] | 
59 | COc1ccc(Br)c(OC)c1C(=O)NC(=O)Nc1nc(C)cc(C)n1 | active: 19.9 µM | 
60 | O=C(c1ccc2ccccc2n1)N1CCN(c2ccccc2O)CC1 | inactive | 
61 | O=C(Nc1ccc(Cl)cc1)C1c2cccc[n+]2CC(=O)N1Cc1ccc2c(c1)OCO2 (stereo not given) | inconclusive: 15.8 µM [inhibitor, partial curve] | 
62 | Cc1ccc2[nH]c(=O)c(CNC(C)C)cc2c1 | inconclusive: 22.3 µM [inhibitor, single point] | 
63 | CC(C)[C@@H](CC(=O)N[C@@H]1CCCC[C@H]1C(=O)N[C@H](CC(=O)N[C@@H](CCC(=O)O)CC(=O)O)Cc1ccccc1)NC(=O)C[C@H](Cc1ccccc1)NC(=O)[C@@H]1CNCC[C@H]1N | inactive | 
64 | N#Cc1c(-c2ccccc2)nc(SCC(=O)Nc2nnc(C(F)(F)F)s2)[nH]c1=O | inconclusive: 17.7 µM [activator, single point] | 
65 | Cc1ccc(CN2CCN(Cc3ccccc3F)CC2)cc1 | inconclusive: 14.1 µM [inhibitor, partial curve] | 
66 | N/C(Cc1cccs1)=N\OC(=O)COc1ccc(Cl)cc1Cl | inactive | 
67 | CCOC(=O)c1c(C)[nH]c2c1-c1ccccc1C(=O)C2=O | inconclusive: 0.126 µM [inhibitor, full curve] | 
68 | CC(C(=O)Nc1ccccc1C(F)(F)F)N1CCN(C)CC1 (stereo not given) | active: 15.8 µM | 
69 | Cc1nc2cc(NC(=O)NCCC3=CCCCC3)ccc2o1 | inactive | 
70 | O=C(CNCc1ccccc1)NCCCN1CCCC1=O | inconclusive: 15.8 µM [inhibitor, partial curve] | 
71 | NC(=O)CSP(=O)(c1ccccc1)c1ccccc1 | inconclusive: 17.7 µM [inhibitor, single point] | 
72 | CN(C)C(=S)Nc1ccc2c(c1)OCO2 | inconclusive: 19.9 µM [inhibitor, single point] | 
73 | CCCC1(c2ccccc2)NC(=O)N(CC(=O)N(C)Cc2c(F)cccc2Cl)C1=O (stereo not given) | inactive | 
74 | CCc1nnc(N/N=C/c2cccs2)n1N | active: 5 µM | 
75 | CC(C)N(CC#CCC(O)(c1ccccc1)c1ccccc1)CCO | active: 15.8 µM | 
